{"source": "PubChem BioAssay AID2101", "about": "(National Center for Advancing Translational Sciences (NCATS), 2009)", "note": "The campaign covered roughly 330,000 compounds. About 300 (0.091%) were called active. Inconclusive results, whose numbers are uncertain, are shown with a selection of clear calls. Calls follow the shape of the dose curve; as a rule, active = well fitted inhibition curve with a large enough effect; inconclusive = small, poorly fitted or top-dose-only effect, or effect the other way, or another doubt; inactive = no such curve, though single readings can be large or run the other way. Potencies of inconclusive entries are left out as doubtful fits. Potency is read from the fitted curve at half-maximal effect.", "data": [{"target": "Lysosomal acid glucosylceramidase (Homo sapiens) (UniProt P04062)", "test": "qHTS Assay for Inhibitors and Activators of N370S glucocerebrosidase as a Potential Chaperone Treatment of Gaucher Disease;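 as to activity change, negative = inhibition: 0% = full enzyme activity and -100% = no enzyme basal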", "conditions": "N370S GC spleen homogenate, 4MU-glucoside fluorescence; activity change, negative = inhibition: at 59.4 µM (top of the series) unless noted", "values": [{"smiles": "Cn1cc(/C=N/NC(=O)COc2ccccc2[N+](=O)[O-])c2ccccc21", "Potency": "inconclusive [activator, single point]"}, {"smiles": "Cc1c(O)ccc2c3c(c(=O)oc12)CCCC3", "Potency": "inconclusive [activator, partial curve]"}, {"smiles": "O=C(CSc1nnc(-c2cccs2)n1CC1CCCO1)c1cc2ccccc2o1", "note": "(configuration not stated)", "Potency": "inconclusive [activator, partial curve, poor fit]"}, {"smiles": "COc1ccccc1C(=O)NCC(=O)OCC(=O)c1ccc2c(c1)-c1ccccc1C2", "Potency": "inconclusive [activator, partial curve, poor fit]"}, {"smiles": "C[C@@H]1[C@H](C)CC[C@@]2(C(=O)O)CC[C@]3(C)C(=CC[C@H]4[C@@]5(C)CC[C@@H](O)C(C)(C)[C@@H]5CC[C@@]43C)[C@@H]12", "Potency": "inactive"}, {"smiles": "Cc1ccc(S(=O)(=O)N2CCCC2C(=O)OCC(=O)Nc2ccc3c(c2)OCO3)cc1", "note": "(configuration not stated)", "Potency": "inconclusive [activator, partial curve]"}, {"smiles": "O=C(c1c(F)cccc1F)N1CCCC1", "activity change, negative = inhibition": "inconclusive: 26.1% [activator]"}, {"smiles": "COc1cccc(-c2nccc(NCc3ccc(OC)cc3OC)n2)c1", "Potency": "inconclusive [inhibitor, partial curve]"}, {"smiles": "CN(Cc1ccccc1)c1c([N+](=O)[O-])c(=O)n(C)c2ccccc12", "Potency": "inconclusive [activator, single point]"}, {"smiles": "O=C(c1ccco1)n1nc(-c2ccco2)nc1SCc1ccccc1", "Potency": "inactive"}, {"smiles": "CCOC(=O)c1nc(Nc2ccc(Nc3ccccc3)cc2)c2ccccc2n1", "Potency": "inconclusive [inhibitor, partial curve]"}, {"smiles": "Cc1ccc(NC(=O)CSCC(=O)Nc2cc(Cl)ccc2N2CCN(C)CC2)cc1", "Potency": "inconclusive [inhibitor, full curve]"}, {"smiles": "N#C/C(=C\\c1cccs1)Sc1nc2ccccc2s1", "Potency": "inconclusive [activator, single point]"}, {"smiles": "CSc1nc(N)nc(SCC(=O)C23CC4CC(CC(C4)C2)C3)c1C#N", "Potency": "inconclusive [activator, partial curve]"}, {"smiles": "Cc1ccc(NC(=O)c2cc3ccccc3o2)cc1", "Potency": "inconclusive [activator, single point]"}, {"smiles": "CCc1cc2c(=O)[nH]c(N3CCCC3)nc2s1", "Potency": "inconclusive [activator, full curve]"}, {"smiles": "COc1ccc(C(CNC(=O)c2ccc(NS(=O)(=O)c3ccc(F)cc3)cc2)N2CCOCC2)cc1", "note": "(configuration not stated)", "Potency": "inconclusive [inhibitor, partial curve]"}]}]}
